Laboratory results published in PMC12136788.
The list shows a part of the results.

B1: ENSG00000124766:be:win_1351|CDS_3pUTR|ENSG00000124766|bound_else_gene|NA|bound_elsewhere_windowed (ssRNA)
RNA: GGGAGUUCUACAGUCCGACGAUCACGCCCGAGGUGAGCGAGAUGAUCUCGGGAGACUGGCUCGAGUCCAGCAUCUCCAACCUGGUUUUCACCUACUGAAGGGCGCGCAGGCAGGGAGAAGGGCCGGGGGGGGUAGGAGAGGAGCAACAGAGGAUUGAGCAUCA
B2: ENSG00000070961:be:win_5651|3pUTR|ENSG00000070961|bound_else_gene|NA|bound_elsewhere_windowed (ssRNA)
RNA: GGGAGUUCUACAGUCCGACGAUCGUUUCUAGUCUUGGUUUUGCCAUUAAUGUGCUGCAUGAUCUUGGGAAAAUCAUUUACCCUAAAUAAGGGUGGUGGACUAUCUUGAAGAACCCUUUCAACUCUAAAAAUUGACCCUAUCAACAACAGAGGAUUGAGCAUCA
B3: chr9:16436428:16436529:-|CDS|ENSG00000173068|msi1|FALSE|unique (ssRNA)
RNA: GGGAGUUCUACAGUCCGACGAUCCUCCCUAGCCAGCUAGUAUUUUCUGGGCUAAAGACUGUACAACCAGUUCCUCCAUUUUAUAGAAGUUUACUCACUCCAGGGGAAAUGGUGAGUCCUCCAACCUCCCUCCCAACCAGUCCCCAACAGAGGAUUGAGCAUCA
B4: chr16:46710636:46710789:-|CDS|ENSG00000140795|control|control|control (ssRNA)
RNA: GGGAGUUCUACAGUCCGACGAUCGGCUUGUCCCCAUUUCUAGGGGAAACAGAUGCAGAGACCAUGAAUUUCAUUGUAAACUGUAGCUGGGAUUUUGAUGCUGACACCUUUGAAGGGCUCUCGGAGGAGGCCAAGGACUUUGUUCAACAGAGGAUUGAGCAUCA
B5: chr12:53210768:53210868:-|3pUTR|ENSG00000172819|msi1_unk|FALSE|overlapping (ssRNA)
RNA: GGGAGUUCUACAGUCCGACGAUCAGGGGGGAUGCUGCUUAGCUGAUCCCGCCCUGACCCAGAGGAAGCCUCUAUUUAUUUAUUAGCUUUUGUUUACACCGUGGAAUUGACCCCUUCCUCCAGGGGUCUUGGGUGGGGGAGCCCCAACAGAGGAUUGAGCAUCA
B6: chr6:37217323:37218421:-|three_prime_utr|ENSG00000172738|control|control|control (ssRNA)
RNA: GGGAGUUCUACAGUCCGACGAUCAGUUCAAGACCAGCCUGGCCUUGGCAGCCAUGGCAAAACCCCGUCUCUACUAAAAAAAAUAGAAAAUUAGCCAGGCGUGGCGGCACACACCUGUAAUCCCAGCCACUUGAGAGGCUGAGACAACAGAGGAUUGAGCAUCA

These binders were tested against MSI1 full-length (mouse, UniProt Q61474 1-362) (assay: nsRBNS (natural sequence RNA bind-n-seq); RBNS binding buffer (assumed for nsRBNS): 25 mM Tris pH 7.5, 150 mM KCl, 3 mM MgCl2, 0.01% Triton X-100, 500 ug/ml BSA, 20 U/ml SUPERase-In, 4 C; UNK is unkempt and MSI1 is Musashi-1; names of the RNAs are library labels; protein concentration not given here; high values mean tight binding).
Chain of UniProt Q61474 (Q61474 whole entry): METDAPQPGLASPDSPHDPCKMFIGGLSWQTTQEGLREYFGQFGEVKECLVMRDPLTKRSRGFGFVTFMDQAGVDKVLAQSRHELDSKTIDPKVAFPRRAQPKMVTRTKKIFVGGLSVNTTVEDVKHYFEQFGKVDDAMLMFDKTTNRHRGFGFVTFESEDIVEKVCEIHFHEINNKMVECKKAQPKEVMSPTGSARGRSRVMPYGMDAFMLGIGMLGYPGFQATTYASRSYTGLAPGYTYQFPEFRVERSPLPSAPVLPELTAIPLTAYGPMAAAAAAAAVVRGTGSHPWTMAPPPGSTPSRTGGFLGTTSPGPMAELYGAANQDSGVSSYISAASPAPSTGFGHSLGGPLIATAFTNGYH

Binder	binding signal [enrichment R]
B1	0.451
B2	0.357
B3	6.94
B4	0.566
B5	3.08
B6	1.65
